# Measurements reported in the supplement of paper PMC8728848.
# Some of the results follow.
# B1: SP16664D-bth-476-27-476 (Bacteroides thetaiotaomicron) (protein)
# chain: DDLEVGKNIDESAYSGIYENNAYLRDGKSNLVSKVVELHGETYATTVKMGLSKTPNTATSAKVKIDAAYLETYNKAHNTDFALYPQDLVTFANEGILTVNANTKSAEVEMTIRAGEGLQEDKTYAIPVAISDQSSDITIKDEDAKHCIYLVKDMRNAGDAYKGEGVMQGYLFFEVNDVNPLNTLSFQLENGKLLWDVVVLFAANINYDAEAGRPRVQCNPNVQYLLDNNETLLQPLRRRGVKVLLGLLGNHDITGLAQLSEQGAKDFAREVAQYCKAYNLDGVNYDDEYSNSPDLSNPSLTNPSTAAAARLCYETKQAMPDKLVTVFDWGQMYGVATVDGVDAKEWIDIVVANYGSAAYPIGQMTKKQCSGISMEFNLGGGGSLSASKAQSMIDGGYGWFMGFAPSPAKYGSVFSRLQGGGEVLYGSNVAAPTIFYKKNDPTPYKYPDDL
# Assays:
# Assay in all cases: glycan array binding signal (z-score within array); higher = stronger binding
# Settings in all cases: glycan notation: IUPAC condensed, linker removed
# [1] = molecular target: Neu5Ac(a2-6)Gal(b1-4)GlcNAc(b1-6)GalNAc
# How it was run: (§1)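 Glycan array data were curated from 3228 arrays in the Consortium for Functional Glycomics database and kept only where the protein sequence was available. Glycan names were converted to IUPAC-condensed notation, and columns mapping to the same glycan were averaged. The binding signal is a within-array Z-score, averaged across arrays of the same protein sequence at different concentrations or buffers and across linkers. Negative Z-scores can be read as non-binding.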
# [2] = molecular target: Neu5Ac(a2-6)Gal(b1-4)GlcNAc(b1-6)[Gal(b1-3)GlcNAc(b1-3)]Gal(b1-4)Glc
# How it was run: as §1
# [3] = molecular target: Neu5Ac(a2-6)Gal(b1-4)GlcNAc(b1-6)[Gal(b1-3)]GalNAc
# How it was run: as §1
# [4] = molecular target: Neu5Ac(a2-6)Gal(b1-4)GlcNAc6S
# How it was run: as §1
# Neu5Ac(a2-6)GalNAc = molecular target: Neu5Ac(a2-6)GalNAc
# How it was run: as §1
# [5] = molecular target: Neu5Ac(a2-6)GalNAc(b1-4)GlcNAc
# How it was run: as §1
# [6] = molecular target: Neu5Ac(a2-6)GalNAc(b1-4)GlcNAc6S
# How it was run: as §1
# [7] = molecular target: Neu5Ac(a2-6)GlcNAc(b1-4)GlcNAc
# How it was run: as §1
# [8] = molecular target: Neu5Ac(a2-6)GlcNAc(b1-4)GlcNAc(b1-4)GlcNAc
# How it was run: as §1
# Neu5Ac(a2-8)Neu5Ac = molecular target: Neu5Ac(a2-8)Neu5Ac
# How it was run: as §1
# [9] = molecular target: Neu5Ac(a2-8)Neu5Ac(a2-3)Gal(b1-3)GalNAc(b1-4)[Neu5Ac(a2-3)]Gal(b1-4)Glc
# How it was run: as §1
# [10] = molecular target: Neu5Ac(a2-8)Neu5Ac(a2-3)Gal(b1-3)GalNAc(b1-4)[Neu5Ac(a2-8)Neu5Ac(a2-3)]Gal(b1-4)Glc
# How it was run: as §1
# [11] = molecular target: Neu5Ac(a2-8)Neu5Ac(a2-3)Gal(b1-4)Glc
# How it was run: as §1
# [12] = molecular target: Neu5Ac(a2-8)Neu5Ac(a2-3)Gal(b1-4)GlcNAc
# How it was run: as §1
# [13] = molecular target: Neu5Ac(a2-8)Neu5Ac(a2-3)[Gal(b1-3)GalNAc(b1-4)]Gal(b1-4)Glc
# How it was run: as §1
# [14] = molecular target: Neu5Ac(a2-8)Neu5Ac(a2-3)[GalNAc(b1-4)]Gal(b1-4)Glc
# How it was run: as §1
# [15] = molecular target: Neu5Ac(a2-8)Neu5Ac(a2-8)Neu5Ac
# How it was run: as §1
# [16] = molecular target: Neu5Ac(a2-8)Neu5Ac(a2-8)Neu5Ac(a2-3)Gal(b1-4)Glc
# How it was run: as §1
# [17] = molecular target: Neu5Ac(a2-8)Neu5Ac(a2-8)Neu5Ac(a2-3)[Gal(b1-3)GalNAc(b1-4)]Gal(b1-4)Glc
# How it was run: as §1
# [18] = molecular target: Neu5Ac(a2-8)Neu5Ac(a2-8)Neu5Ac(a2-3)[GalNAc(b1-4)]Gal(b1-4)Glc
# How it was run: as §1
# [19] = molecular target: Neu5Ac(a2-8)Neu5Ac(a2-8)Neu5Ac(a2-8)Neu5Ac(a2-3)[GalNAc(b1-4)]Gal(b1-4)Glc
# How it was run: as §1
# [20] = molecular target: Neu5Ac(a2-8)Neu5Gc(a2-3)Gal(b1-4)GlcNAc
# How it was run: as §1
# [21] = molecular target: Neu5Ac(b2-6)Gal(b1-4)GlcNAc
# How it was run: as §1
# Neu5Ac(b2-6)GalNAc = molecular target: Neu5Ac(b2-6)GalNAc
# How it was run: as §1
# [22] = molecular target: Neu5Ac9Ac(a2-3)Gal(b1-3)GlcNAc
# How it was run: as §1
# [23] = molecular target: Neu5Ac9Ac(a2-3)Gal(b1-4)GlcNAc
# How it was run: as §1
# [24] = molecular target: Neu5Ac9Ac(a2-6)Gal(b1-4)GlcNAc
# How it was run: as §1
# [25] = molecular target: Neu5Gc(a2-3)Gal(b1-3)GlcNAc
# How it was run: as §1
# [26] = molecular target: Neu5Gc(a2-3)Gal(b1-3)[Fuc(a1-4)]GlcNAc
# How it was run: as §1
# Neu5Gc(a2-3)Gal(b1-4)Glc = molecular target: Neu5Gc(a2-3)Gal(b1-4)Glc
# How it was run: as §1
# [27] = molecular target: Neu5Gc(a2-3)Gal(b1-4)GlcNAc
# How it was run: as §1
# [28] = molecular target: Neu5Gc(a2-3)Gal(b1-4)GlcNAc(b1-3)Gal(b1-4)GlcNAc(b1-2)Man(a1-3)[Neu5Gc(a2-3)Gal(b1-4)GlcNAc(b1-3)Gal(b1-4)GlcNAc(b1-2)Man(a1-6)]Man(b1-4)GlcNAc(b1-4)GlcNAc
# How it was run: as §1
# [29] = molecular target: Neu5Gc(a2-3)Gal(b1-4)[Fuc(a1-3)]GlcNAc
# How it was run: as §1
# [30] = molecular target: Neu5Gc(a2-6)Gal(b1-4)GlcNAc
# How it was run: as §1
# Neu5Gc(a2-6)GalNAc = molecular target: Neu5Gc(a2-6)GalNAc
# How it was run: as §1
# [31] = molecular target: Neu5Gc(a2-8)Neu5Ac(a2-3)Gal(b1-4)GlcNAc
# How it was run: as §1
# [32] = molecular target: Neu5Gc(a2-8)Neu5Gc(a2-3)Gal(b1-4)GlcNAc
# How it was run: as §1
# [33] = molecular target: Neu5Gc(a2-8)Neu5Gc(a2-3)Gal(b1-4)GlcNAc(b1-3)Gal(b1-4)GlcNAc
# How it was run: as §1
binder,measurement,setting,value
B1,glycan array binding signal (z-score),[1],-0.041
same,glycan array binding signal (z-score),[2],-0.349
same,glycan array binding signal (z-score),[3],-0.082
same,glycan array binding signal (z-score),[4],-0.047
same,glycan array binding signal (z-score),Neu5Ac(a2-6)GalNAc,-0.006
same,glycan array binding signal (z-score),[5],-0.264
same,glycan array binding signal (z-score),[6],-0.065
same,glycan array binding signal (z-score),[7],0.144
same,glycan array binding signal (z-score),[8],-0.029
same,glycan array binding signal (z-score),Neu5Ac(a2-8)Neu5Ac,-0.161
same,glycan array binding signal (z-score),[9],-0.237
same,glycan array binding signal (z-score),[10],0.139
same,glycan array binding signal (z-score),[11],-0.328
same,glycan array binding signal (z-score),[12],-0.238
same,glycan array binding signal (z-score),[13],-0.262
same,glycan array binding signal (z-score),[14],-0.158
same,glycan array binding signal (z-score),[15],-0.336
same,glycan array binding signal (z-score),[16],-0.14
same,glycan array binding signal (z-score),[17],-0.225
same,glycan array binding signal (z-score),[18],2.53
same,glycan array binding signal (z-score),[19],0.095
same,glycan array binding signal (z-score),[20],-0.346
same,glycan array binding signal (z-score),[21],-0.182
same,glycan array binding signal (z-score),Neu5Ac(b2-6)GalNAc,-0.24
same,glycan array binding signal (z-score),[22],-0.226
same,glycan array binding signal (z-score),[23],-0.052
same,glycan array binding signal (z-score),[24],-0.233
same,glycan array binding signal (z-score),[25],-0.232
same,glycan array binding signal (z-score),[26],-0.044
same,glycan array binding signal (z-score),Neu5Gc(a2-3)Gal(b1-4)Glc,-0.239
same,glycan array binding signal (z-score),[27],-0.227
same,glycan array binding signal (z-score),[28],-0.176
same,glycan array binding signal (z-score),[29],-0.243
same,glycan array binding signal (z-score),[30],-0.282
same,glycan array binding signal (z-score),Neu5Gc(a2-6)GalNAc,-0.127
same,glycan array binding signal (z-score),[31],-0.114
same,glycan array binding signal (z-score),[32],-0.222
same,glycan array binding signal (z-score),[33],-0.176
